Laboratory results reported in the supplement of paper PMC3334620.
In all, about 33,000 sequences were measured (“E-score (-0.5 to 0.5)”: median about -0.021, highest 2% from about 0.32 on). Some of the results follow.

The sequences below were run against T1, Zap1 (UniProt P47043) (assay: PBM E-score (8-mer binding enrichment) (E-score (-0.5 to 0.5)); higher = stronger / more preferred TF binding; most listed sequences are background and not binding sites). Conditions: protein concentration: 200 nM; construct: GST-full length.
T1 sequence: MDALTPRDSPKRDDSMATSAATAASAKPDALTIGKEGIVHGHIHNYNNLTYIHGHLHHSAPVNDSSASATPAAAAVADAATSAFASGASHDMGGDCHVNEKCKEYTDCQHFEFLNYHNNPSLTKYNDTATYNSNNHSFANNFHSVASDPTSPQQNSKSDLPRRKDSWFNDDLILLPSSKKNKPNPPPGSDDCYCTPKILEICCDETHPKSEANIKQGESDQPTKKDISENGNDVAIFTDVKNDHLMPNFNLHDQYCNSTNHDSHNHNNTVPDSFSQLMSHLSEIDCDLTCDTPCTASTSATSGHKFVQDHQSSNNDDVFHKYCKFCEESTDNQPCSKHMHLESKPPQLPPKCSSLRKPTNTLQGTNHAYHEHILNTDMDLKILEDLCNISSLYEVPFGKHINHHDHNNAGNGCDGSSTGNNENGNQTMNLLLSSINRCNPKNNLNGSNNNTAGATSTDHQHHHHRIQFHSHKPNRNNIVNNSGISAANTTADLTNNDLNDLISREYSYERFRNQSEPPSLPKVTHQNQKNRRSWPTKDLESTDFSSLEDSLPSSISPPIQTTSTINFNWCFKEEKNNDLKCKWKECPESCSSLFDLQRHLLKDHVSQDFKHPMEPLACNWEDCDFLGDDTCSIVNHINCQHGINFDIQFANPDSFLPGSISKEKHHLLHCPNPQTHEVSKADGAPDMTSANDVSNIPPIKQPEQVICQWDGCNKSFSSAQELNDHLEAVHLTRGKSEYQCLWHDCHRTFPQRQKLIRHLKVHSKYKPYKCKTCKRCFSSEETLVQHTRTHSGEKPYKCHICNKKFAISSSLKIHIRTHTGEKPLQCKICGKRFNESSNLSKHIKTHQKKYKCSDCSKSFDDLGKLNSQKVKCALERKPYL
Outline: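 For each ungapped eight-base word taken together with its reverse complement, the Universal PBM Analysis Suite assigned an E-score. Binding data came from GST-tagged yeast transcription factors, applied at about 100-200 nM, on universal all-10-mer Agilent arrays made double-stranded by primer extension. Fluorescent anti-GST marked bound protein, and scans were normalised with masliner.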

| Sequence | PBM E-score |
| --- | --- |
| CTCCTGTA | -0.0674 |
| CCCCTTGC | -0.0145 |
| CAGTGGCC | 0.0773 |
| ACGACCGC | -0.0278 |
| CATAATAG | 0.0641 |
| CGGGCAAC | -0.226 |
| GTACCACA | 0.282 |
| AGCTTCAT | -0.0699 |
| CGACCCGC | -0.0198 |
| CCATATCA | -0.0321 |
| GTTTTTTA | 0.257 |
| ACGCCTGG | -0.118 |
| CCGGTAGG | 0.0542 |
| GCTTCTCA | -0.212 |
| CACTCGGC | -0.179 |
| AACTACTC | 0.0879 |
| CCTCGGGA | -0.0412 |
| AGTCTTTC | -0.227 |
| ATGCACCA | -0.0934 |
| AACTTTAC | -0.0435 |
| AAGCGAAT | -0.0307 |
| GGATACCC | 0.393 |
| CGCGTCCA | -0.232 |
| CGCCTTTC | -0.157 |
| ATAAATGA | 0.126 |

| Sequence | PBM E-score |
| --- | --- |
| TAATTGAA | 0.0645 |
| AGACGAAA | 0.0482 |
| CCAGCGCC | -0.276 |
| CGAGATCG | -0.114 |
| GATCCCGC | -0.0967 |
| AATCCCAT | -0.0451 |
| CCGAGTCC | -0.129 |
| AAGATGCA | 0.0988 |
| ACGGTACC | 0.399 |
| ATGTACAA | 0.114 |
| ACAATATA | 0.176 |
| CTCCAGTA | -0.049 |
| CTATGCAA | 0.00525 |
| CGCTCCTC | -0.311 |
| ACTGCCAT | 0.113 |
| TAACCAGA | 0.314 |
| CGTTCCGA | -0.0199 |
| ACCGGGAT | -0.00572 |
| ACCCTACG | 0.361 |
| AGTCATAC | -0.0188 |
| GCACATCC | -0.0416 |
| GTCGCAAA | -0.0278 |
| GGGAGGCA | -0.289 |
| ATCCTCTC | -0.0369 |
| AGGCTGTA | 0.00164 |

| Sequence | PBM E-score |
| --- | --- |
| ACAAAGAT | 0.0424 |
| CGTACCCC | 0.18 |
| ACATTATC | -0.0315 |
| AATTCCTA | 0.0396 |
| CTAGGCAG | -0.185 |
| CCACAACA | 0.109 |
| ACACCGGT | 0.0627 |
| ACATGGAA | 0.0796 |
| GAGTCACA | 0.03 |
| CGACCAGC | 0.0699 |
| TCCTACGA | -0.09 |
| TTCCCGAA | 0.0883 |
| AAGCTCTC | -0.0774 |
| AGTGGGGA | -0.104 |
| ACTGTGTA | 5e-05 |
| ATATTTTG | 0.102 |
| AGTTACTC | 0.082 |
| ACGCTATA | -0.066 |
| ATATATAA | 0.249 |
| CCTTTTAG | 0.308 |
| AAATTGAC | 0.0363 |
| CCCGTATA | 0.0661 |
| ATGTCTCA | -0.0296 |
| ATGCGAGC | -0.223 |
| CCACACTC | -0.098 |

| Sequence | PBM E-score |
| --- | --- |
| ACTCTGCT | -0.322 |
| GCACGTAC | -0.297 |
| ACACTTTC | -0.104 |
| ATACAAAA | 0.28 |
| ACAAAGAC | 0.217 |
| GCTGTGTA | -0.108 |
| CTCTAAGC | -0.0361 |
| CCCCCTCA | -0.406 |
| CATAGGGA | -0.2 |
| CCGAATAG | 0.0614 |
| CATCAGTC | -0.338 |
| ACCTAGGC | -0.26 |
| ACCCCAAC | 0.302 |
| ACGCAGTG | -0.166 |
| ACGTGGAT | -0.0971 |
| GAACAAAA | 0.218 |
| CACTATCA | -0.0362 |
| TCTTTGAA | -0.005 |
| CCCACATA | -0.0573 |
| ATTTCTAG | 0.242 |
| ACCCAGGA | 0.114 |
| CAGTTCAA | -0.12 |
| AACCAAAA | 0.364 |
| CGCTCCGC | -0.332 |
| CCAGCACA | -0.00996 |

| Sequence | PBM E-score |
| --- | --- |
| GTAGTGAA | 0.105 |
| TAGGCTAA | -0.0546 |
| CACGCGAA | -0.152 |
| CACAAGTG | -0.211 |
| AATCTGCA | -0.0649 |
| ATCCTTTA | 0.092 |
| ATTTATGA | 0.107 |
| GTGTATGA | -0.0526 |
| ATGATCGG | -0.0148 |
| ACGGTTAA | 0.258 |
| AGAGGTAT | 0.311 |
| AAATTATC | 0.215 |
| CGTTTGAC | -0.0377 |
| GTGTAGGA | -0.0469 |
| AGATTGAC | -0.0527 |
| GACGTAAC | 0.195 |
| AGCAGAAG | -0.196 |
| ACAGGCGC | -0.335 |
| GAAGGATA | -0.106 |
| GAGCGCAA | -0.0826 |
| TCGTATCA | -0.0428 |
| GCGGGTTA | 0.366 |
| CGAGTCAC | 0.0483 |
| CCGCGAGA | -0.166 |
| AGTCTTAA | -0.226 |

| Sequence | PBM E-score |
| --- | --- |
| CCATAACA | 0.19 |
| CCCAGAAC | 0.221 |
| AGCGCGAC | 0.0568 |
| ATTTCTAA | -0.0928 |
| ACCGCTCG | 0.0486 |
| CTAGCTAA | -0.0794 |
| GTTGAGTA | -0.02 |
| ATTGGGTC | 0.109 |
| AATCCTAC | -0.161 |
| AGTCCAGC | -0.158 |
| CATCAAGC | -0.0639 |
| ATTCGGCA | -0.17 |
| AACATTCC | -0.289 |
| CGATTCCA | -0.193 |
| GGCCGCCC | -0.0965 |
| AAGCGTCA | -0.00741 |
| GGTTAACC | 0.427 |
| AACCTTTG | 0.377 |
| ATGAAACC | 0.151 |
| CGAGGTTC | 0.22 |
| AATTGTGA | 0.0817 |
| CGGAGTTC | 0.0089 |
| AGTCCCAA | 0.0837 |
| TGTGAGAA | -0.0687 |
| GAGAGTCA | -0.0419 |

| Sequence | PBM E-score |
| --- | --- |
| TCCACCCA | -0.233 |
| ACGGGATC | -0.164 |
| TAAGTCTA | -0.121 |
| GCACTGAA | -0.136 |
| ATGTAGTA | 0.155 |
| ATCAGCTC | -0.0782 |
| CGGCCCCC | -0.119 |
| TGTTGAAA | 0.114 |
| CTTTAGGA | -0.00183 |
| CTAACCCA | 0.326 |
| GGGATTTA | -0.00348 |
| AAGCTGTG | -0.125 |
| ATGAGCTA | -0.0368 |
| ACCATCAT | 0.00541 |
| GTTAAATA | 0.0734 |
| CAGCACGA | -0.035 |
| GAACGGCA | -0.167 |
| AGTATGTG | -0.0541 |
| GCCGCTAC | -0.0893 |
| CACGTAAC | 0.102 |
| ATCTGATC | -0.0664 |
| CCGTCGCC | -0.109 |
